This note sets out measurements from publication PMC8710044 (Biochemical pharmacology, 2021).

Data set [1] addresses T1, CYP2C19 (Homo sapiens, UniProt P33261). As to the kind of experiment: Steady-state kinetics of overall NSAID metabolism. In kind it is in vitro ADME. As to conditions: overall metabolism by CYP2C19; Vmax/Km.
The target of data set [2] is T2, CYP3A4 (Homo sapiens, UniProt P08684). Kind of data set: Steady-state kinetics of overall NSAID metabolism. In kind it is in vitro ADME. As to conditions: overall metabolism by CYP3A4; Vmax/Km.
T2 sequence (P08684 whole entry): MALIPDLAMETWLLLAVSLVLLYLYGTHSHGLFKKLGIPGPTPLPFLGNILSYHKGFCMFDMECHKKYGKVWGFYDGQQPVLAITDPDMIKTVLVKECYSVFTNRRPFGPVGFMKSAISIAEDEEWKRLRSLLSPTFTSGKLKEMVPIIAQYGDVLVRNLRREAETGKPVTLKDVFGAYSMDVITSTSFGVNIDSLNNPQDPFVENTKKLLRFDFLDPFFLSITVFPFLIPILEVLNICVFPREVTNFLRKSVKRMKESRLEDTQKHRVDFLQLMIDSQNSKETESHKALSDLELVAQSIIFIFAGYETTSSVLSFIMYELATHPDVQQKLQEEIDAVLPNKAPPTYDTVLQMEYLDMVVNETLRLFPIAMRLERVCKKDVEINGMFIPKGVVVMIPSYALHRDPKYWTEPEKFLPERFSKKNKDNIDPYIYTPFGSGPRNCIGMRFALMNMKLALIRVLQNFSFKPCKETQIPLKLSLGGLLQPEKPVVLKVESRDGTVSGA
The next data set has as its target CYP2C9 (Homo sapiens, UniProt P11712). As to the kind of experiment: Relative CYP contribution to hepatic bioactivation and detoxification, CYP2C9. In kind it is in vitro ADME. As to conditions: sum of bioactivation ksp values.
Data set [3] deals with T1, CYP2C19. Kind of data set: Relative CYP contribution to hepatic bioactivation and detoxification, CYP2C19. In kind it is in vitro ADME. The note with it: sum of bioactivation ksp values.
In data set [4] the target is T2, CYP3A4. As to the kind of experiment: Relative CYP contribution to hepatic bioactivation and detoxification, CYP3A4. In kind it is in vitro ADME. As to conditions: sum of bioactivation ksp values.
In data set [5] the target is T3, CYP2C8 (Homo sapiens, UniProt P10632).
T3 sequence (P10632 1-490): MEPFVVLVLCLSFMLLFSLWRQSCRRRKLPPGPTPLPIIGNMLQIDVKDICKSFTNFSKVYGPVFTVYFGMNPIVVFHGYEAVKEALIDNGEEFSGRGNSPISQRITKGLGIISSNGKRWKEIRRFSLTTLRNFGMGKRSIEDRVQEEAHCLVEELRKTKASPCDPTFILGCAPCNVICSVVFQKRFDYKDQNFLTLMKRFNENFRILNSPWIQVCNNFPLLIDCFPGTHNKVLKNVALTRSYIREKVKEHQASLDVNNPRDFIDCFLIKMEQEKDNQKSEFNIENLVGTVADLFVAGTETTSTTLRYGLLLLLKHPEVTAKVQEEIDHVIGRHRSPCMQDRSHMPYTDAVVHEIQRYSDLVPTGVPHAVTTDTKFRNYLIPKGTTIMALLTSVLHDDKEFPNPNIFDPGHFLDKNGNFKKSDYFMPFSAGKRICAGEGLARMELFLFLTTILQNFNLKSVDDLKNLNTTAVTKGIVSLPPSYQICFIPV
Kind of data set: Steady-state kinetics of overall NSAID metabolism. In kind it is in vitro ADME. As to conditions: overall metabolism by CYP2C8; Vmax/Km.

Data set [6] deals with T3, CYP2C8. As to the kind of experiment: Relative CYP contribution to hepatic bioactivation and detoxification, CYP2C8. In kind it is in vitro ADME. The note with it: sum of bioactivation ksp values.
Substrate in data set [7]: Cc1ccc(Cl)c(Nc2ccccc2C(=O)O)c1Cl
Kind of data set: cells, lysate or membranes named. As to conditions: other: CYP2C9; metabolite M6, path 3; 95% CI in parentheses; pH 7.4.

Substrate in data set [8]: Cc1ccc(Nc2c(F)cccc2Cl)c(CC(=O)O)c1
As to the kind of experiment: cells, lysate or membranes named. As to conditions: other: CYP2C9; metabolite M6a, path 3; 95% CI in parentheses; pH 7.4.

Substrate in data set [9]: O=C(O)COC(=O)Cc1ccccc1Nc1c(Cl)cccc1Cl
Kind of data set: cells, lysate or membranes named. The note with it: other: CYP2C9; metabolite M6, path 3; 95% CI in parentheses; pH 7.4.

T1 sequence (P33261 whole entry): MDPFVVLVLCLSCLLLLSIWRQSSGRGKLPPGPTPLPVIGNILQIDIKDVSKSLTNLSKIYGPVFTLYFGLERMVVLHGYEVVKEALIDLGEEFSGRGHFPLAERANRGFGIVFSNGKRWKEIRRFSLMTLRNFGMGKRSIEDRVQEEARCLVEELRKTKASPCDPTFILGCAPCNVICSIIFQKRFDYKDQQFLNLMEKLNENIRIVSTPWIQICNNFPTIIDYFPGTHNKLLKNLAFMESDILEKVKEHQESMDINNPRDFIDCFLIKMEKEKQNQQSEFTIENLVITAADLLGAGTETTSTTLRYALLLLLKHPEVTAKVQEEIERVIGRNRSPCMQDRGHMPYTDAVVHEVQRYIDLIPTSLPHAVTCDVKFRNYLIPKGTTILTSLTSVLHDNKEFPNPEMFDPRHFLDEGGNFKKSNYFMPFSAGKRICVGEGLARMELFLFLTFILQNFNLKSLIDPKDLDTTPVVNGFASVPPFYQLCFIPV

Regarding `Cc1c(Cl)cccc1Nc1ccccc1C(=O)O` [TOL, tolfenamic acid], the ksp on CYP2C19 [1] is listed as 18.8 pmol/min/nmol protein/μM substrate; at CYP3A4 [2], 37.3 pmol/min/nmol protein/μM substrate. Besides, the “Bioactivation ksp,total” value on CYP2C9 was 4.66 pmol/min/nmol protein/μM substrate; on CYP2C19 [3], 0.705 pmol/min/nmol protein/μM substrate; at CYP3A4 [4] it was 1.06 pmol/min/nmol protein/μM substrate.

Regarding `O=C(O)COC(=O)Cc1ccccc1Nc1c(Cl)cccc1Cl` [ACE, aceclofenac], the values for the ksp at CYP2C8 [5], on CYP2C19 [1] and at CYP3A4 [2] were 15.8 pmol/min/nmol protein/μM substrate, 8.0 pmol/min/nmol protein/μM substrate and 29.7 pmol/min/nmol protein/μM substrate, respectively. Besides, the “Bioactivation ksp,total” value is 0.90 pmol/min/nmol protein/μM substrate at CYP2C8 [6], 12.6 pmol/min/nmol protein/μM substrate at CYP2C9, 1.51 pmol/min/nmol protein/μM substrate on CYP2C19 [3] and 0.109 pmol/min/nmol protein/μM substrate at CYP3A4 [4].

As for `Cc1cccc(Nc2ccccc2C(=O)O)c1C` [MEF, mefenamic acid], the ksp on CYP2C8 [5] is 15.0 pmol/min/nmol protein/μM substrate; on CYP2C19 [1] it was 13.9 pmol/min/nmol protein/μM substrate; at CYP3A4 [2] it was 43.8 pmol/min/nmol protein/μM substrate. The “Bioactivation ksp,total” value on CYP2C8 [6] is reported as 0.179 pmol/min/nmol protein/μM substrate; on CYP2C9 it was 4.22 pmol/min/nmol protein/μM substrate; at CYP2C19 [3], 0.295 pmol/min/nmol protein/μM substrate; at CYP3A4 [4], 0.181 pmol/min/nmol protein/μM substrate.

In the case of `O=C(O)Cc1ccccc1Nc1c(Cl)cccc1Cl` [DIC, diclofenac], the ksp at CYP2C8 [5] was 15.0 pmol/min/nmol protein/μM substrate; at CYP2C19 [1], 27.5 pmol/min/nmol protein/μM substrate; on CYP3A4 [2] it was 42.2 pmol/min/nmol protein/μM substrate. Besides, the “Bioactivation ksp,total” value on CYP2C8 [6] is 0.013 pmol/min/nmol protein/μM substrate; on CYP2C19 [3] it was 1.50 pmol/min/nmol protein/μM substrate; on CYP3A4 [4], 0.20 pmol/min/nmol protein/μM substrate.

On to `Cc1ccc(Cl)c(Nc2ccccc2C(=O)O)c1Cl` [MEC, meclofenamic acid], for which the ksp is recorded as 15.0 pmol/min/nmol protein/μM substrate on CYP2C19 [1] and 41.2 pmol/min/nmol protein/μM substrate at CYP3A4 [2]. The “Bioactivation ksp,total” value was 2.23 pmol/min/nmol protein/μM substrate at CYP2C9, 4.36 pmol/min/nmol protein/μM substrate on CYP2C19 [3] and 0.648 pmol/min/nmol protein/μM substrate on CYP3A4 [4].

Turning to `O=C(O)c1ccccc1Nc1cccc(C(F)(F)F)c1` [FLU, flufenamic acid], the ksp on CYP2C19 [1] is given as 16.7 pmol/min/nmol protein/μM substrate; at CYP3A4 [2], 40.8 pmol/min/nmol protein/μM substrate. The “Bioactivation ksp,total” value on CYP2C9 was 1.20 pmol/min/nmol protein/μM substrate; on CYP2C19 [3], 0.27 pmol/min/nmol protein/μM substrate; at CYP3A4 [4], 1.04 pmol/min/nmol protein/μM substrate.

As to `Cc1ccc(Nc2c(F)cccc2Cl)c(CC(=O)O)c1` [LUM, lumiracoxib], the ksp on CYP2C19 [1] was 33.8 pmol/min/nmol protein/μM substrate; at CYP3A4 [2], 31.7 pmol/min/nmol protein/μM substrate. Moreover, the figures for the “Bioactivation ksp,total” value at CYP2C9, on CYP2C19 [3] and on CYP3A4 [4] were 5.66 pmol/min/nmol protein/μM substrate, 0.147 pmol/min/nmol protein/μM substrate and 0.146 pmol/min/nmol protein/μM substrate, respectively.

B1: CYP2C9 (Homo sapiens) (protein)
chain: MDSLVVLVLCLSCLLLLSLWRQSSGRGKLPPGPTPLPVIGNILQIGIKDISKSLTNLSKVYGPVFTLYFGLKPIVVLHGYEAVKEALIDLGEEFSGRGIFPLAERANRGFGIVFSNGKKWKEIRRFSLMTLRNFGMGKRSIEDRVQEEARCLVEELRKTKASPCDPTFILGCAPCNVICSIIFHKRFDYKDQQFLNLMEKLNENIKILSSPWIQICNNFSPIIDYFPGTHNKLLKNVAFMKSYILEKVKEHQESMDMNNPQDFIDCFLMKMEKEKHNQPSEFTIESLENTAVDLFGAGTETTSTTLRYALLLLLKHPEVTAKVQEEIERVIGRNRSPCMQDRSHMPYTDAVVHEVQRYIDLLPTSLPHAVTCDIKFRNYLIPKGTTILISLTSVLHDNKEFPNPEMFDPHHFLDEGGNFKKSKYFMPFSAGKRICVGEALAGMELFLFLTSILQNFNLKSLVDPKNLDTTPVVNGFASVPPFYQLCFIPV
Consider B1, for which the Km was 18.2 (12.9–25.0) μM in data set [7], 7.6 (6.2–9.3) μM in data set [8] and 8.1 (6.5–9.9) μM in data set [9]. In addition, the kcat is given as 9.4 (8.8–10.0) pmol/min/nmol protein in [7], 13.1 (12.7–13.6) pmol/min/nmol protein in data set [8] and 43.5 (41.8–45.3) pmol/min/nmol protein in data set [9].
